# Assay results: US12678425B2, “Methods for treating against viruses” (Howard University, priority 2019, dated 2026)
# Tested on: HSV-1 F strain expressing luciferase (R8411)
# Assay: Bioluminescence luciferase assay of HSV1-Luc proliferation in HEp-2 cells
# Details: for inhibition of HSV-1 proliferation (luciferase signal): 1 μM
# Method: The virus used in this diagram is an HSV-1 F strain expressing luciferase (R8411 mutant) under the control of the ICP27 promoter, and was a gift from Prof. Bernard Roizman (University of Chicago). HEp-2 cells were grown to 80-90% confluency in Dulbecco's Modified Eagle's medium (DMEM) supplemented with 10% fetal calf serum (PCS) and 1% penicillin-streptomycin (PS) and fungicide. The HSV-1 virus and the indicated concentration of compound(s) were added and incubated for 24 h (in panels A and B) and for 48 h (in panel C). The luciferase signals were imaged and quantified in a Perkin Elmer IVIS Spectrum Imaging system. […] High luminescence indicates high viral proliferation. […] Panel B is a bar graph of a luciferase signal as shown in panel A for HSV-1 with no virus, virus treated with DMSO, and virus treated with different concentrations of a representative compound within general formula (1). […] The compound(s) inhibit Y248 phosphorylation of RACK1 protein.
# Hep-2 cells were incubated with the indicated compounds in the presence of HSV1-Luc virus at a concentration of 4×10^6 pfu/ml media (Panel A). Panel B depicts quantification of the luciferase signal from the samples in panel A. Signals from three replicates from two separate experiments were combined to generate the average and the standard error bar.
# As an IRES-containing virus, an HSV-1 F strain expressing luciferase (R8411 mutant) under the control of the ICP27 promoter can be used. HEp-2 cells are grown to 80-90% confluency in Dulbecco's Modified Eagle's medium (DMEM) supplemented with 10% fetal calf serum (FCS) and 1% penicillin-streptomycin (PS) and fungicide. The HSV-1 virus and a concentration of an inhibitor compound(s) of a formulae herein are added and are incubated for 24 h and for 48 h (FIG. 11). The luciferase signals are imaged and are quantified in an imaging system, such as a Perkin Elmer IVIS Spectrum Imaging system. Inhibition against proliferation will be seen in a reduction in the luciferase signal.
# (§1) To 80-90% confluent HEp-2 cells, HSV1-Luc (R8411) is added at a concentration of 2×10^6 pfu/ml along with indicated concentration of inhibitor compounds. After the described incubation period, luciferase activity is evaluated from bioluminescence images acquired by a Perkin Elmer IVIS Spectrum Imaging system immediately after adding luciferase substrate (D-luciferin, Gold Bio Technology) at a concentration of 400 μg/mL in medium. Bioluminescence intensity in different wells is quantified in units of photons per second per centimeter squared per steradian (p/s/cm^2/sr) by drawing a polygonal region of interest over the signals in images using Living Image 3.0 software (Caliper Life Sciences).
# as §1, with “was” for “is”
Structure (SMILES),inhibition of HSV-1 proliferation (luciferase signal),"efficacy compared with acyclovir (HSV1-Luc, Hep-2 cells)",combinatorial effect on HSV1-Luc proliferation (all concentrations of SD29-14 combined with 10 μM of acyclovir),"HSV-1 proliferation (luciferase signals), dose dependence (co-treatment with virus)","concentration from which efficacy against HSV-1 proliferation starts (in vitro, luciferase signal)","improvement of starting effective concentration over SD-29 (in vitro, luciferase signal)",inhibition of HSV1-Luc proliferation (10 μM)
Nn1c(S)nnc1-c1ccc(F)cc1 [SD-29],much less efficacy,,,,,,
Nn1c(S)nnc1-c1cc(Cl)cc(Cl)c1 [SD-29-14],significantly inhibited,efficacy at slightly higher level than that of acyclovir,supralinear effect,strong inhibition of HSV-1 proliferation in a dose dependent manner,1 µM,100 times,
"Nc1nc2c(ncn2COCCO)c(=O)[nH]1 [acyclovir, reference compound]",,,,,,,showed inhibition
